Measurements published in PubChem BioAssay AID686978 (National Center for Advancing Translational Sciences (NCATS), 2013).
The campaign covered roughly 420,000 compounds. About 64,000 (15%) were called active. The inconclusive results got no clear call from the source; some entries with a clear call stand among them for comparison. Calls come from the whole dose curve; as a rule, active = well fitted inhibition curve with a large enough effect; inconclusive = small, poorly fitted or top-dose-only effect; inactive = flat fitted curve, though single readings scatter. Potencies of inconclusive entries are left out as doubtful fits.

Assay: qHTS for Inhibitors of human tyrosyl-DNA phosphodiesterase 1 (TDP1): qHTS in cells in absence of CPT; note: nearly all actives have a fitted effect of over 55% in size
Conditions: DT40 Tdp1-/- hTDP1 cells, no CPT, ATP luminescence, 48 h; activity change, negative = growth inhibition: at 46.2 µM (top of the series) unless noted
Method in brief: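 Luminescent ATP content (CellTiter-Glo) served as the growth readout. Knockout chicken DT40 cells expressing human TDP1 were exposed to compounds without camptothecin for a minimum 48 hr at 37 °C.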
% is set by controls: 0 for no effect and ±100 for the full control effect; potency is the fitted concentration of half-maximal effect; tags give direction and shape of the fitted curve.

SMILES | Potency | activity change, negative = growth inhibition
CC(=O)N1CCN(c2cc(N3CCc4ccccc4C3)c(F)cc2[N+](=O)[O-])CC1 | inconclusive [inhibitor, single point] | –
COc1ccccc1N1CCN(c2nc(CNC(=O)C3CC34CCCC4)nc3ccccc23)CC1 (centres undefined) | active: 20.6 µM | –
COc1cc(NC(=O)c2cc3nc(-c4ccc(C)cc4)cc(C(F)(F)F)n3n2)cc(OC)c1OC | active: 7.31 µM | –
Cc1cccn2c(=O)c3cc(C(=O)N(C)C)n(C)c3nc12 | inconclusive [inhibitor, partial curve] | –
COc1ccc(NC(=O)NC23CC4CC(CC(C4)C2)C3)cc1OC | inconclusive [inhibitor, partial curve, poor fit] | –
CCC(C)NC(=O)CSc1nc(-c2cccs2)cc(C(F)(F)F)n1 (centres undefined) | inconclusive [inhibitor, single point] | –
CNC(=O)c1ccc(NC(=O)Nc2ccccc2)cc1 | inconclusive [inhibitor, single point] | –
O=C(NCc1cccc(Cl)c1)C1Cc2c(-c3ccccc3Oc3ccccc3)ccnc2O1 (centres undefined) | inconclusive [inhibitor, single point] | –
Cc1nn(Cc2ccc(C(=O)N3N=C(C(F)F)CC3(O)C(F)F)o2)c(C)c1[N+](=O)[O-] (centres undefined) | inconclusive [inhibitor, single point] | –
O=C(c1ccc(Nc2nc3ccccc3n3nnnc23)cc1)N1CCN(c2ccc(F)cc2)CC1 | active: 9.2 µM | –
COc1ccc(C2C(C#N)=C(N)N(c3sc4c(c3C#N)CCCC4)C3=C2C(=O)CC(C)(C)C3)cc1 (centres undefined) | inconclusive [inhibitor, single point] | –
CCCCOc1ccc(Cl)cc1CSc1nncn1N | – | inactive: -20.7%
O=C(c1ccc(CS(=O)(=O)c2ccc(Br)cc2)o1)N1CCN(c2ncccn2)CC1 | inconclusive [inhibitor, single point] | –
COc1ccc(NCc2nnc(SCc3ccccc3)n2-c2ccc(OC)cc2)cc1 | inconclusive [inhibitor, single point] | –
O=c1cc(C(F)(F)F)[nH]c2ccc(OC(F)(F)F)cc12 | active: 13 µM | –
Cn1c(=O)c2c(nc(NCCCO)n2C/C=C/c2ccccc2)n(C)c1=O | active: 18.4 µM | –
Cc1ccc(NC(=O)CC(C)c2ccccc2)cc1S(=O)(=O)N1CCOCC1 (centres undefined) | inconclusive [inhibitor, partial curve, poor fit] | –
C[C@@H]1C[C@@H]2OC(=O)[C@]3(C)[C@H]2[C@@H](OC3(C)O)[C@]2(C)C(=O)C=C[C@H]12 (some centres undefined) | inconclusive [inhibitor, single point] | –
N#CC1(Nc2ccc3c4c(cccc24)CC3)CCCCC1 | inconclusive [inhibitor, single point] | –
O=C(NCCCc1nc2ccccc2n1CCCCOc1ccccc1)C1CCCCC1 | active: 12.6 µM | –
Cc1ccc(SCCCn2cnc3ccccc3c2=O)cc1 | inconclusive [inhibitor, single point] | –
COc1ccc(/C=C/C(=O)NC2=NCCS2)cc1OC | inconclusive [inhibitor, partial curve] | –
S=C(Nc1ccccc1)Nc1ccc(Cl)cc1Cl | inconclusive [inhibitor, single point] | –

SMILES | Potency | activity change, negative = growth inhibition
COc1ccc(OCc2ccc(-c3nc(C#N)c(N4CCC(C(N)=O)CC4)o3)o2)cc1 | inconclusive [inhibitor, single point] | –
Cc1ccc(C(C2C(=O)CC(C)(C)CC2=O)C2C(=O)CC(C)(C)CC2=O)s1 | inconclusive [inhibitor, partial curve] | –
CN=C(Nc1ccc(C)c(C)c1)SC1CC(=O)N(c2ccc(OC)cc2)C1=O (centres undefined) | inconclusive [inhibitor, single point] | –
COc1ccc(NC(=O)C2(C)CCN2CCc2ccccc2)cc1OC (centres undefined) | inconclusive [inhibitor, single point] | –
CCOC(=O)N1CCC(N2Cc3cccc(C(=O)N4CCN(c5cccc(Cl)c5)CC4)c3C2=O)CC1 | inconclusive [inhibitor, partial curve] | –
CCO[C@H]1OC(C(=O)NCc2nc3ccccc3[nH]2)=C[C@@H](c2ccc3c(c2)OCO3)[C@@H]1CCCO | inconclusive [inhibitor, single point] | –
CN(CC(=O)Nc1ccccc1Br)C(=O)CCSc1ccc(F)cc1 | active: 13 µM | –
CCOc1cc(N2CCOCC2)c(OCC)cc1NS(=O)(=O)c1ccc(Cl)s1 | active: 2.91 µM | –
N#C/C(=C\c1cccc(Oc2ccccc2)c1)C(=O)N1CCOCC1 | inconclusive [inhibitor, single point] | –
O=c1c(Sc2ccccc2)c(C(F)(F)F)[nH]n1-c1ccccc1 | inconclusive [inhibitor, single point] | –
CCOc1ccc(C(=O)NC(=S)Nc2ccccn2)cc1[N+](=O)[O-] | inconclusive [inhibitor, single point] | –
O=C(CCCn1c(=O)[nH]c2ccccc2c1=O)N1CCN(c2ccccn2)CC1 | – | inactive: -16.2%
C#CCOCCOCCOCCNc1nc(N2CCN(C(=O)C([C@@H](C)O)n3cc([C@@H](N)CCCCN)nn3)CC2)nc(N2CCN(C(=O)[C@H](CCCCN)n3cc(CN)nn3)CC2)n1 (some centres undefined) | – | inactive: -15%
O=C(Nc1cc(-c2nc3cc(Cl)ccc3o2)ccc1Cl)c1cccc2ccccc12 | – | inactive: -6.93%
CCN(Cc1ccccc1)S(=O)(=O)c1c(C(=O)N2CCCC2)c(C)n(C)c1C | – | inactive: 4.76%
COc1ccc(CCNC(=O)c2c[nH]n3c(=O)c(Cc4ccccc4Cl)c(C)nc23)cc1OC | inconclusive [inhibitor, single point] | –
Cc1nc(S(=O)(=O)N(C)c2ccccc2)c(C#N)c(C)c1Cl | active: 23.1 µM | –
CCn1c2c(c(=O)n3ncc(C(=O)Nc4ccc(OC(F)(F)F)cc4)c13)CN(Cc1ccc(OC)cc1)CC2 | active: 23.1 µM | –
CN(C)c1ccc(CNC(=O)CCn2c(=O)c3cccn3c3ccc(F)cc32)cc1 | – | inactive: -15.1%
CN(C)C1=NCCN1CC1CCCCCC1 | inconclusive [inhibitor, single point] | –
Cc1onc(-c2ccccc2)c1C(=O)Nc1nc(-c2ccc(F)c(F)c2)cs1 | active: 25.9 µM | –
COCCOC(=O)C1=C(C)N=C2SCCC(=O)N2C1c1ccc(OCc2ccccc2)c(OC)c1 (centres undefined) | – | inactive: -5.94%
CC(C)N1C(=O)NC2NC(=O)N(C(C)C)C21 (centres undefined) | – | inactive: -0.984%

SMILES | Potency | activity change, negative = growth inhibition
CCOC(=O)C(=Cc1ccc(N(C)C)cc1)C(=O)c1ccccc1 | inconclusive [inhibitor, partial curve] | –
O=S(=O)(CCS(=O)(=O)c1ccccc1)c1ccccc1 | – | inactive: -18.4%
COc1ccc2[nH]c3c(c2c1)CCNC3(C)CCc1ccc(Cl)nc1 (centres undefined) | – | inactive: -27.4%
COc1ccccc1N1CCN(c2cc(C)nc3c(-c4ccc(Cl)cc4)c(C)nn23)CC1 | – | inactive: -4.48%
CCS(=O)(=O)N1CCN(c2cc3c(cc2[N+](=O)[O-])n(C)c(=O)n3C)CC1 | inconclusive [inhibitor, single point] | –
Cc1cc(NC(=O)CSc2c(C)[nH]c3ccccc23)no1 | inconclusive [inhibitor, single point] | –
N#Cc1c(NC(=O)C(=O)NCCCN2CCOCC2)sc2c1CCC2 | – | inactive: 10.1%
Cc1ccc(F)cc1C(=O)N1CCOCC1c1cc(C(=O)Nc2ccccc2)no1 (centres undefined) | inconclusive [inhibitor, single point] | –
CC(C)c1ccc(-c2nnn(CCC(=O)O)n2)cc1 | – | inactive: -16.3%
N#Cc1ccc(-c2ccc(OCC(O)Cn3nnc4ccccc43)cc2)cc1 (centres undefined) | inconclusive [inhibitor, single point] | –
CCc1nnc2c(NCc3cccc(OC)c3)nc3ccccc3n12 | inconclusive [inhibitor, single point] | –
O=C(Nc1ccc2c(c1)CCC2)c1cnn2c1NC(=C1CC1)C=C2C(F)F | inconclusive [inhibitor, single point] | –
COc1cc(/C=C/C(=O)N2CCc3ccccc3C2)cc(OC)c1OC | inconclusive [inhibitor, single point] | –
CC(=O)Nc1sc(C)c(C)c1C(=O)OCC(=O)Nc1cc(S(=O)(=O)N2CCCCC2)ccc1Cl | – | inactive: -0.102%
O=C(c1cccc2ccccc12)N1CCN(c2ccccc2F)CC1 | inconclusive [inhibitor, single point] | –
Cc1ccc(-c2ocnc2C(=O)Nc2nc(C)cs2)cc1 | – | inactive: -24.8%
CC#CCN1c2ccccc2[C@]23C[C@@H](C(=O)OC)N(C(=O)c4ccc(Br)cc4)C2=NC(C(=O)OC)=C(C(=O)OC)[C@H]13 | active: 18.4 µM | –
O=C(CN1C(=O)C2C3C=CC(C3)C2C1=O)NCCc1ccccc1 (centres undefined) | active: 23.1 µM | –
COc1ccc(/C=N/NC(=O)Cn2cnc3ccccc3c2=O)cc1 | – | inactive: -0.958%
COc1ccc(OC)c(C(=O)COC(=O)c2[nH]c(C)c(C(C)=O)c2C)c1 | inconclusive [inhibitor, single point] | –
Cc1ccc(C(=O)O/N=C/c2c(Cl)n(C)c3ccccc23)cc1 | inconclusive [inhibitor, single point] | –
CCN(CC)S(=O)(=O)c1cc(NC(=O)COC(=O)Cn2cnc3ccccc32)ccc1C | – | inactive: 1.06%
COc1ccc2c(C(=O)CN(C)C3CCCCC3)c[nH]c2c1 | inconclusive [inhibitor, single point] | –
